Source: publication PMC4336329 (PLoS ONE, 2015)
The campaign covered roughly 310,000 compounds. About 14,000 (4.5%) showed an effect of 50% or more. Effects have a minus sign here. The list shows a part of the results.

Target: human ether-à-go-go-related gene (hERG) potassium channel (human, UniProt Q12809)
Experiment: primary screen, population patch clamp on CHO cells stably expressing hERG
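Also: peak tail current of the secondary pulse compared with the same well before compound.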

Chain of human ether-à-go-go-related gene (hERG) potassium channel (Q12809 whole entry, looked up): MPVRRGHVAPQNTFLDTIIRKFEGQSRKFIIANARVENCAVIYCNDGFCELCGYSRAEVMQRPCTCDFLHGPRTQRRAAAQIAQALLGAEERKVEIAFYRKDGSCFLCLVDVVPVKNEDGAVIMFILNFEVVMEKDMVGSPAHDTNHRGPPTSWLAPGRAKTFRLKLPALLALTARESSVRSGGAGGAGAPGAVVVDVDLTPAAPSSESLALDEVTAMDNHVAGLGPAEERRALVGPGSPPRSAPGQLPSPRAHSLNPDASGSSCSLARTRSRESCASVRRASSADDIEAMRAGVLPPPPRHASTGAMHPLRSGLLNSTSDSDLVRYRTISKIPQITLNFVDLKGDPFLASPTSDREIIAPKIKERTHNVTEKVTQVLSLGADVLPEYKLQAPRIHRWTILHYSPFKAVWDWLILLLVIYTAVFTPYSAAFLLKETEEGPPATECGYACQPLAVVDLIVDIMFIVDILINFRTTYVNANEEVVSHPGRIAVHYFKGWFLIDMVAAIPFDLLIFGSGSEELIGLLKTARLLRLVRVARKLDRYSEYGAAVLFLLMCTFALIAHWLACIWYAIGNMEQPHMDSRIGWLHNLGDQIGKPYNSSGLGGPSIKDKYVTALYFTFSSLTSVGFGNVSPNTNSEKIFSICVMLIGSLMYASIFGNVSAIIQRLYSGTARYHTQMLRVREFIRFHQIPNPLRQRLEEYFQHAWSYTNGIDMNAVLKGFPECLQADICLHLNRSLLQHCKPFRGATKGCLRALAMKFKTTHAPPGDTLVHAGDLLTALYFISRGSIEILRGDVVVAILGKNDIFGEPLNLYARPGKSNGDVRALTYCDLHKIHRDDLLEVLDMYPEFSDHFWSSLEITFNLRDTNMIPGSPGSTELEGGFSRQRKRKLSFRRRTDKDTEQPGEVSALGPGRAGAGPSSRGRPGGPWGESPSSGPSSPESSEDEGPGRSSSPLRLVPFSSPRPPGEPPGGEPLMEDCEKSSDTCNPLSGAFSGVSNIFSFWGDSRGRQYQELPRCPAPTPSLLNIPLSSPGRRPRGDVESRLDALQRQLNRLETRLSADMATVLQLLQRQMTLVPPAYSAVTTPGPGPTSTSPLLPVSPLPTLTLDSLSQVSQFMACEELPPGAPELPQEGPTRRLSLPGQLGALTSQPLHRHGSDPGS

SMILES	hERG current change (%, negative = inhibition) at 10uM
COC(=O)[C@@]1(Cc2ccc(F)cc2)[C@H]2c3cc(C(=O)N4CCCC4)n(CCc4ccccn4)c3C[C@H]2CN1C(=O)c1ccccc1	-64.1%
Nn1c(-c2cccs2)nc2sc3c(c2c1=O)CCCC3	-4.7%
CC1(O)c2ccccc2C(=O)N1Cc1ccccc1 (centres unmarked)	-23.8%
Cc1cccc2cc3c(N)c(C(=O)N4CCCc5ccccc54)sc3nc12	-0.302%
COc1cc2[nH]c(=O)n(CCC(=O)N3CCc4ccccc4C3)c(=O)c2cc1OC	5.04%
Cc1ccc(OCc2nnc(NC(=O)OCC(C)C)s2)cc1	7.08%
O=C(/C=C/c1cccc(Cl)c1)c1ccc([N+](=O)[O-])o1	-2.44%
C/C(=N\Nc1nccnc1Cl)c1ccc(Br)cc1	-5.02%
COc1ccc(NC(=O)C(NS(=O)(=O)c2cccs2)C(C)C)cc1Cl (centres unmarked)	-26.2%
COc1ccc(CNC(=O)C(=O)NCC2OCCN2S(=O)(=O)c2ccc(F)cc2)cc1 (centres unmarked)	-3.41%
Cc1cccc(N2C(=O)CC(N3CCN(c4ccccn4)CC3)C2=O)c1 (centres unmarked)	11.4%
COC(=O)C(O)(c1ccc(NC(=S)NC(=O)c2ccc(Cl)cc2Cl)c(C)c1)C(F)(F)F (centres unmarked)	6.47%
O=C(COC(=O)c1ccc2c(c1)OCCO2)Nc1cccc(S(=O)(=O)N2CCOCC2)c1	-24.3%
CCCN(CC(=O)Nc1ccc(C(N)=O)cc1)CC(=O)Nc1ccc(F)c(F)c1F	13.3%
C#Cc1ccc([C@@H]2C=C(C(=O)O)O[C@H](OCc3ccc(CO)cc3)C2)cc1	5.85%
CCOc1ccc(C(=O)OCC(=O)N(Cc2ccccc2)Cc2ccccc2)cc1OC	-6.33%
Cc1nc(-c2ccc(C(=O)Nc3ccccc3F)cc2)cs1	11.8%
O=C(NNC(=O)c1ccc(Br)o1)c1csc(N2CCOCC2)n1	-2.39%
Cc1ccc(CN(Cc2cc3cccc(C)c3[nH]c2=O)C(=S)NCCCN(C)C)cc1	-65%
CCC(C(=O)NC1CCCC1)N(C(=O)c1snc(C(N)=O)c1N)c1ccc(C)cc1C (centres unmarked)	-7.83%
COCCCN1C(=O)CC(C(=O)OC)=C1C	16.6%
CN(C)C(CNC(=O)Nc1cccc(Cl)c1)c1cccnc1 (centres unmarked)	-7.28%

SMILES	hERG current change (%, negative = inhibition) at 10uM
Nc1nonc1C(=O)NCCNc1ccc([N+](=O)[O-])cn1	-1.34%
CCNc1nc(NCC)nc(SCCOC(=O)c2ccccc2)n1	-39.4%
Cc1ccc(C)c(C(=O)NCc2ccncc2)c1	0.302%
O=C(CCN1C(=O)C2C3C=CC(C3)C2C1=O)NCCc1ccccc1 (centres unmarked)	8.02%
O=C(COC(=O)c1ccc(O)cc1O)Nc1ccc2c(c1)OCCO2	5.01%
CCc1ccccc1NC(=S)N1CCC(C(=O)c2ccc(F)cc2)CC1	-63%
CCn1ncc(C(=O)Nc2ccc(F)cc2)c1C	1.49%
COc1ccccc1C(=O)NNC(=O)c1ccc(NC(=O)CC(C)C)cc1	11.9%
COC(=O)C1=Nc2ccccc2/C1=C\c1c(O)n(-c2cc(OC)ccc2OC)c(=O)[nH]c1=O	10.3%
CCN(CC(=O)Nc1ccccc1Br)C1CCCCC1	-10.6%
COc1ccccc1NC(=O)Nc1ccccc1C#N	15.6%
COc1ccc(NC(=O)CC(C)CC(=O)NCc2ccc(F)cc2)c(OC)c1 (centres unmarked)	-4.08%
CCOC(=O)c1c(NC(=O)CSc2nnnn2CC)sc(C)c1C	1.27%
CCCOc1cc(C)c(S(=O)(=O)NC2CC(C)(C)NC(C)(C)C2)cc1C	-15%
Cc1nc2ccccc2c(=O)n1NC(=O)c1ccccc1	4.86%
O=C(NNC(=O)c1cccs1)c1ccc(Cl)cc1	8.63%
CCCN1CCC(Oc2cccc(C(=O)NCCc3ccccc3)c2)CC1	-66%
NS(=O)(=O)c1ccc(NC(=O)C2CCCN(S(=O)(=O)c3ccc(F)cc3)C2)cc1 (centres unmarked)	16.3%
O=C1C[C@@H](c2ccccc2)Oc2cc(O)cc(O)c21	-19.1%
Clc1ccc(Cn2ncc3c(NCc4cccnc4)ncnc32)cc1	-51.2%
CS(=O)(=O)c1ccc2nc(NC(=O)CCNC(=O)c3ccccc3Cl)sc2c1	-3.34%
CCOc1ccc(NC(=O)Cn2nnc(C(=O)NCc3ccccc3OC)c2N)cc1	8.75%
